Measured values published in PubChem BioAssay AID1347043 (National Center for Advancing Translational Sciences (NCATS), 2019).
Hit rate of the full screen: of about 76,000 compounds, about 1,900 (2.5%) were called active. The shares of active, inactive and inconclusive entries below differ from those in the screen. The call rests on the fitted dose curve; in most records, active means well fitted inhibition curve with a large enough effect; inconclusive means small, poorly fitted or top-dose-only effect; inactive means flat fitted curve, though single readings scatter. Potencies of inconclusive entries are doubtful fits and often do not repeat.

These compounds were tested against Luciferin 4-monooxygenase (Photinus pyralis) (UniProt P08659) (assay: Firefly luciferase inhibition profiling of diverse chemical library using quantitative high-throughput screening). Settings: purified P. pyralis luciferase, luminescence, biochemical; series mostly up to 115 µM.
Outline: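 Purified 10nM P. pyralis luciferase with 10uM D-luciferin and 10uM ATP in 50mM Tris acetate pH 7.5, 10mM Mg acetate, 0.01% Tween-20, 0.05% BSA. qHTS titration; luminescence read by CCD imager.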
Further: nearly all actives have a fitted effect of over 65% in size.
Potency means the concentration at half of the fitted maximal effect; tags describe the fitted curve by direction and shape.

Chain of UniProt P08659 (P08659 whole entry, looked up): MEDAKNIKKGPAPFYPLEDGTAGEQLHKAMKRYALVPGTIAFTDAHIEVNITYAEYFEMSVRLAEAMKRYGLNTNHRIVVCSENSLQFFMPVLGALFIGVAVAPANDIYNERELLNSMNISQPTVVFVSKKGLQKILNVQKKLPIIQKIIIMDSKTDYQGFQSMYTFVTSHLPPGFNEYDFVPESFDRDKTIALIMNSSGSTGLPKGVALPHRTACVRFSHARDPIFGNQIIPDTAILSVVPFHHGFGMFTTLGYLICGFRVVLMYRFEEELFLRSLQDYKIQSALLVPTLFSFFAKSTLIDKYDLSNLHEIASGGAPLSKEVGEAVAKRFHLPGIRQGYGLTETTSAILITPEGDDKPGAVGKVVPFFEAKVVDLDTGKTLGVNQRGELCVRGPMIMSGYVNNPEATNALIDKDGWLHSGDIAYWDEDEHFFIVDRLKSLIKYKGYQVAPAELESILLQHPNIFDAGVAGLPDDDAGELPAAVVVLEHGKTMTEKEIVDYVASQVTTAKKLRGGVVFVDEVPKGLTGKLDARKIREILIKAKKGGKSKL

SMILES	Potency
Cc1nonc1CN(C)C(=O)c1csc2nc(-c3cccc(C(F)(F)F)c3)cn12	inconclusive: 56.2 µM [inhibitor, partial curve]
O=C(Nc1ccccc1F)N1CC(Oc2ccc(-c3noc(-c4ccccc4)n3)cc2)C1	inconclusive: 5.62 µM [inhibitor, full curve]
COc1ccc(-c2cc(N3CCCC(NC(=O)c4cccc(Cl)c4)C3)n[nH]2)cc1 (stereo unspecified)	inconclusive: 7.94 µM [inhibitor, full curve]
COc1ccccc1CC(=O)Nc1cnc(-c2cccc(Cl)c2)nc1	active: 12.6 µM
CN(Cc1cccc(C(F)(F)F)c1)C(=O)c1ccccc1	inconclusive: 39.8 µM [inhibitor, partial curve]
COC(=O)C1CCCCN1C(=O)CCc1nnc(CCc2ccccc2OC)o1 (stereo unspecified)	inconclusive: 50.1 µM [inhibitor, partial curve]
COc1cccc(N2CCN(C(=O)c3noc(-c4ccc(C)cc4)n3)CC2)c1	active: 20 µM
O=C(Cn1ccn2nc3c(c2c1=O)CCCCC3)Nc1ccc2c(c1)OCCO2	inconclusive: 15.8 µM [inhibitor, partial curve, poor fit]
CC(=O)N(C1CC1)C1CCOC2(CCN(C(=O)Nc3ccccc3)CC2)C1 (stereo unspecified)	inactive
O=C(Nc1ccccc1)N[C@H]1CO[C@H]2[C@@H]1OC[C@H]2OC(=O)Nc1ccc(Oc2ccccc2)cc1	inconclusive: 39.8 µM [inhibitor, partial curve]
COCc1nc2nc(-c3ccccc3)c(-c3ccc(O)c(F)c3)cc2n1C	inconclusive: 70.8 µM [inhibitor, partial curve, poor fit]
c1ccc(Nc2cc3c(cn2)CN(Cc2cnc[nH]2)CCN3)cc1	inconclusive: 15.8 µM [inhibitor, full curve]
Cc1ccc(C2Cn3nnc(C(=O)N4CCC(C(=O)NC5CCC(C)CC5)CC4)c3CO2)cc1 (stereo unspecified)	active: 28.2 µM
O=C(c1n[nH]c2ccccc12)N1CCC(c2nc(C3CCOCC3)no2)CC1	inconclusive: 50.1 µM [inhibitor, partial curve, poor fit]
O=C(Nc1ccc(Cl)nc1)c1cnn2ncccc12	inconclusive: 50.1 µM [inhibitor, partial curve]
O=C(Cc1ccccc1)Nc1ccc([C@@H](O)[C@H]2COCC(=O)N2Cc2ccccc2)cc1	inactive
CCOc1ccc(C(=O)NC2CCCN(c3cc(-c4ccc(F)cc4)[nH]n3)C2)cc1 (stereo unspecified)	inactive
COc1ccc(-c2cc(-c3cccc(OC)c3OC)cn3cncc23)cc1	inconclusive: 63.1 µM [inhibitor, partial curve, poor fit]
OC[C@@H]1O[C@H](CN(Cc2cccc(Cl)c2)Cc2cccc(Cl)c2)C(N2CCOCC2)[C@@H]1O (stereo partly specified)	inactive
C=CCOC(=O)C1=C(C)N=C2SC=C(CC(=O)N3CCOCC3)N2C1c1ccc(C)cc1C (stereo unspecified)	inconclusive: 79.4 µM [inhibitor, partial curve, poor fit]
c1ccc(Nc2cc3c(cn2)NCCN(Cc2cccs2)C3)cc1	inactive
O=C(O)CCn1ncc2cc(OCC3CCN(c4ncc(F)cn4)CC3)ccc21	inconclusive: 89.1 µM [inhibitor, partial curve]

SMILES	Potency
COc1cccc(S(=O)(=O)N2CCC(c3noc(-c4cnccn4)n3)C2)c1 (stereo unspecified)	inactive
CCOc1ccccc1CN1CCN(c2ncnc3[nH]ccc23)CC1CCO (stereo unspecified)	inactive
Cc1csc(CN(C)C(=O)CC(c2ccccc2)c2ccc3c(c2)OCO3)n1 (stereo unspecified)	active: 31.6 µM
Cc1ccc(-c2cc3c(=O)n(CCNC(=O)c4cc(F)ccc4F)ccn3n2)c(C)c1	inconclusive: 0.794 µM [inhibitor, full curve, poor fit]
Cc1ccccc1NC(=O)N1CCC(CCNC(=O)CCCc2ccccc2)CC1	inconclusive: 39.8 µM [inhibitor, partial curve]
CCCn1ccnc1CN1CCc2nc(-c3ccc(Cl)cc3)[nH]c2C1	inconclusive: 79.4 µM [inhibitor, single point]
Cc1cc(COc2ccccc2)oc1C(=O)N1C[C@@H]2CCN(C)[C@@H]2C1	inconclusive: 79.4 µM [inhibitor, single point]
CS(=O)(=O)N1CCC(OC2CCN(C(=O)Nc3ccc4c(c3)OCCO4)CC2)CC1	active: 35.5 µM
CN(C)c1ccc(-c2ccnc(N[C@H]3CO[C@H]4[C@@H]3OC[C@@H]4NC(=O)CSCC(=O)O)n2)cc1	inconclusive: 79.4 µM [inhibitor, partial curve]
Cc1ccc(-c2cc3c(=O)n(CCNC(=O)c4ccoc4)ccn3n2)c(C)c1	inconclusive: 8.91 µM [inhibitor, full curve]
O=C(NC1CCCCC1)N1Cc2[nH]cnc2C[C@H]1c1nc(-c2ccc(F)c(Cl)c2)no1	inconclusive: 44.7 µM [inhibitor, partial curve]
OC[C@@H]1CN(Cc2ccccc2)C[C@H]1c1nc(-c2ccncc2)no1	inconclusive: 31.6 µM [inhibitor, full curve]
O=C(Nc1ncc(-c2cccc(F)c2)c2c1OCC2)c1c[nH]c2ccccc12	inconclusive: 28.2 µM [inhibitor, full curve, poor fit]
COc1cccc(NC(=O)c2ccc3c(c2)N(C)C2CCCCCN2C3=O)c1 (stereo unspecified)	inconclusive: 39.8 µM [inhibitor, partial curve]
COc1cccc(CN2C(=O)OC3(CCN(Cc4ccc(F)cc4)CC3)C2(C)c2cccnc2)c1 (stereo unspecified)	inactive
Cn1ccc2cc(-c3ccc4ncn(Cc5ccccn5)c(=O)c4n3)ccc21	active: 44.7 µM
COc1ccc(C2Cn3cnc(C(=O)N4CCC(C(=O)Nc5ccc(Cl)cc5)CC4)c3CO2)cc1 (stereo unspecified)	inconclusive: 39.8 µM [inhibitor, partial curve]
O=[S+]1([O-])NCC2(CCN(CC3CCCCC3)C2)Nc2ccccc21 (stereo unspecified)	inactive
CN(C)c1cccc(C(=O)NC2CCCN(c3cc(-c4ccccc4)[nH]n3)C2)c1 (stereo unspecified)	active: 35.5 µM
O=C(Nc1ccc2c(c1)CCC2)C1CCN(C(=O)c2ncn3c2COC(c2ccc(F)cc2)C3)CC1 (stereo unspecified)	active: 28.2 µM
CCOc1ccc(-c2cc3c(=O)n(CCNC(=O)c4cccc(Cl)c4)ccn3n2)cc1	inconclusive: 0.251 µM [inhibitor, full curve]
Cc1ccc2c(C(=O)NC3CC3)cnn2c1	inconclusive: 79.4 µM [inhibitor, partial curve]

SMILES	Potency
O=C(Cn1ccn2nc3c(c2c1=O)CCCCC3)Nc1ccc2c(c1)OCO2	inconclusive: 39.8 µM [inhibitor, partial curve]
O=C(c1c[nH]c2ncccc12)N1CCC(Cc2ccccc2)CC1	inconclusive: 56.2 µM [inhibitor, partial curve]
COCc1nc2nccc(-c3ccc(Br)s3)n2n1	inconclusive: 79.4 µM [inhibitor, partial curve, poor fit]
COc1ccc(-c2ccc3c(c2)C(=O)N2CC[C@H](NC(=O)c4cccs4)[C@H]2C(=O)N3)c(OC)c1	inconclusive: 31.6 µM [inhibitor, partial curve]
Cc1c(-c2ccccc2F)[nH]c2ccc(CNC(=O)CCC3=NNC(=O)CC3)cc12	inconclusive: 44.7 µM [inhibitor, partial curve, poor fit]
O=C(NC1CC1)c1ccc2ccnn2c1	inconclusive: 126 µM [inhibitor, partial curve]
Cc1cnccc1N1CCCN(Cc2cnc(-c3cccs3)nc2)CC1	inactive
CC(=O)N1CCCN(c2ccc(-c3nc(-c4ccccc4F)no3)cn2)CC1	active: 12.6 µM
O=C1CC(c2ccccc2)N(C(=O)Cc2cccc(F)c2)CCCCCCN1 (stereo unspecified)	inactive
Cc1cc(C)n(CCC(=O)N2CC(Oc3cccc(-c4nc(-c5ccccc5)no4)c3)C2)n1	active: 28.2 µM
Cc1ccc(-c2cc(N3CCC(CNC(=O)c4ccc(=O)[nH]c4)CC3)n[nH]2)cc1	inconclusive: 44.7 µM [inhibitor, partial curve]
Cc1cccc(N2CCN(C(=O)c3noc(-c4ccc5c(c4)OCO5)n3)CC2)c1	active: 22.4 µM
Cc1ccc(NC(=O)N2CCC(OC3CCN(S(C)(=O)=O)CC3)CC2)cc1F	inconclusive: 44.7 µM [inhibitor, partial curve]
COc1cc(F)cc(-c2cccc(CCOc3cnc4c(ccn4CC(=O)O)c3)c2)c1	inactive
CNC(=O)N1CCc2c(sc3ncnc(N(C)C)c23)C1	inactive
COc1cccc(-c2ccc3ncn(-c4ccc(F)cc4F)c(=O)c3n2)c1OC	inconclusive: 70.8 µM [inhibitor, partial curve]
O=C(O)c1cccc(C(=O)N2C[C@@H]3C[C@H](C2)c2ccc(NC(=O)c4ccco4)c(=O)n2C3)c1	inconclusive: 50.1 µM [inhibitor, partial curve]
CCc1noc(-c2cccn3c(CNC(=O)c4cccc(N(C)C)c4)nnc23)n1	inconclusive: 25.1 µM [inhibitor, full curve]
Cc1ccc(NC(=O)c2ccc3c(c2)N(C)C2CCCCN2C3=O)cc1C (stereo unspecified)	active: 39.8 µM
Cc1nnn2c(C(=O)Nc3ccc(Cl)cc3Cl)cccc12	inconclusive: 0.398 µM [inhibitor, full curve]
Cc1ccc(-c2nocc2CCC(=O)O)cc1	inconclusive: 89.1 µM [inhibitor, partial curve]
O=C(CN1C(=O)NC(c2ccccc2Cl)C2=C1COC2=O)Nc1cccc(C(F)(F)F)c1 (stereo unspecified)	inconclusive: 20 µM [inhibitor, full curve]
